Test results: ChEMBL document CHEMBL4888484, “Replenishing the malaria drug discovery pipeline: Screening and hit evaluation of the MMV Hit Generation Library 1 (HGL1) against asexual blood stage Plasmodium falciparum ,using a nano luciferase reporter read-out” (2022)
The campaign covered roughly 150,000 compounds. About 540 (0.36%) showed an effect of 50% or more. Some of the results follow.

The compounds below were run on Plasmodium falciparum (assay: Primary screen in NF54 nanoGlo assay, in single point, at 2uM, 72h; a lower Z score goes with more inhibition). Conditions: timepoint 72 hour.
Assay type: functional, Erythrocyte

SMILES | % Inhibition | Z score
OC1(c2nc(-c3cccs3)no2)CCCC1 | -7% | 0.68
CN(CCCc1nccn1C)Cc1cc(O)c2cccc(F)c2n1 | -11% | 1.97
O=C(Cc1ccc(Br)cc1)N1CCC(N2C(=O)CNC2=O)CC1 | -5% | 0.88
CCc1nnsc1C(=O)NCCNc1ccc(C#N)cn1 | -4% | 0.49
Cc1cc(Cl)cc(Cl)c1CNC(=O)C[C@H]1CCOC1 | 1% | -0.27
c1cncc(C(NC2CC3CCC2O3)c2ncc[nH]2)c1 (stereo not drawn) | 6% | -0.91
O=C1NCCN1C1CN(c2nc(C3CCCC3)ns2)C1 | 35% | -3.95
COCCN(CCOC)C(=O)Nc1cc(C)on1 | -9% | 0.94
CNC(=O)c1cccc(C(=O)N2CCN(CC(F)(F)F)CC2(C)C)c1 | -3% | 0.42
COc1ccccc1-c1nnc([C@H]2CCN(Cc3ccc(Cl)cc3)C2)o1 | 29% | -3.25
Nc1nc2c(c(N3CC(N4CCOCC4)C3)n1)CCCC2 | -4% | 0.6
CC(C)(C)n1nnc(CC(=O)N2CCCc3ccc(Cl)c(F)c32)n1 | 0% | 0.03
CN1CCC(O)(CCNC(=O)Cc2ccc(F)c(F)c2F)CC1 | -7% | 1.38
COc1cccc2c1Oc1c(c(=O)n(-c3ccccc3)n1CC(=O)Nc1cccc(F)c1)C2 | -19% | 1.9
COCCn1cncc1CN(C)CCc1cnn(C)c1 | 13% | -1.66
Cc1nc(CN(C)CCc2scnc2C)co1 | 7% | -0.68
c1ccc(-c2csc(N3CCC(n4ccnc4)CC3)n2)cc1 | -2% | 0.39
CCCn1cc(-c2cc(-c3ccc(O)cc3OC)c(C#N)c(N)n2)c(C)n1 | 9% | -1.42
Cn1cc(N2CCN(Cc3ccc4ccccc4n3)CC2=O)cn1 | -12% | 1.24
O=C(c1ccc2c(c1)CCO2)N1C[C@H]2C[C@H](C1)[C@@H]1CCCC(=O)N1C2 | -4% | 0.39
Cn1nccc1S(=O)(=O)Nc1scc(C(C)(C)C)c1C#N | 1% | -0.16
CNC(=O)[C@@H]1C[C@H](Oc2ccccc2)CN1C1CCN(C(=O)c2nccc3ccccc23)CC1 | 1% | -0.14
Cc1ccc(CCNC(=O)C(=O)Nc2cc(F)c(F)c(F)c2)cn1 | 4% | -0.55
O=C(CC[C@H]1CCCN(Cc2cc3c(cc2Cl)OCO3)C1)N1CCCC1 | -21% | 1.87
